# From PubChem BioAssay AID1468 (National Center for Advancing Translational Sciences (NCATS), 2008)
# In all, about 280,000 compounds went through this assay and about 1,100 (0.39%) were called active. The inconclusive results got no clear call from the source; some entries with a clear call stand among them for comparison. Calls come from the whole dose curve; as a rule, active = well fitted inhibition curve with a large enough effect; inconclusive = small, poorly fitted or top-dose-only effect, or effect the other way; inactive = flat fitted curve, though single readings scatter. No potency is given beside an inconclusive call; the fits are too rough.
# Target: Microtubule-associated protein tau (Homo sapiens) (UniProt P10636)
# UniProt P10636, sequence (P10636 whole entry, looked up): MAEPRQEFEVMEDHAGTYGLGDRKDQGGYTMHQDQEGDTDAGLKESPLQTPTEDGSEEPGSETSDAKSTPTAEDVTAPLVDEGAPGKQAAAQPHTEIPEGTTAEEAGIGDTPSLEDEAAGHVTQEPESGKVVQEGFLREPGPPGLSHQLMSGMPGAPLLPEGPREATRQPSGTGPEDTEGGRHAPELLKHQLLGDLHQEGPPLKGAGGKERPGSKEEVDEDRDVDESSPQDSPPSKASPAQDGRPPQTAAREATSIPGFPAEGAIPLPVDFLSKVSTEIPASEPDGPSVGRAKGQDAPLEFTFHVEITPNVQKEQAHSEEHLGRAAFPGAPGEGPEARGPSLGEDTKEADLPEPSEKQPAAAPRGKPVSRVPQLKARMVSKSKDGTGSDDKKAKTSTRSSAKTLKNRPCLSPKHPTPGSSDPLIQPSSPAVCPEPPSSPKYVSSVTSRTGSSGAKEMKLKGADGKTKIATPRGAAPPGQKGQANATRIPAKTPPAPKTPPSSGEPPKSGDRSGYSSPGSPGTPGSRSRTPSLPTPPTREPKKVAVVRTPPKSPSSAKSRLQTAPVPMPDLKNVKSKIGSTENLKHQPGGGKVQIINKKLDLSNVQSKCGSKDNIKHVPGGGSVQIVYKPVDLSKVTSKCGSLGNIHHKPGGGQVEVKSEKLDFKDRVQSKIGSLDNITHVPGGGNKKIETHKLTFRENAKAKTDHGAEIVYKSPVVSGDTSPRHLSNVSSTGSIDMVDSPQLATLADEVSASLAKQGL
# Assay: qHTS for Inhibitors of Tau Fibril Formation, Fluorescence Polarization; note: nearly all actives have a fitted effect of over 55% in size
# Details: K18 P301L tau heparin fibrillization, Alexa594 FP, 6 h; series mostly up to 57.7 µM
# Method in brief: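 Human K18 P301L fragment (15 uM unlabeled plus 0.24 uM Alexa 594-labeled) in 100 mM sodium acetate pH 7 with compound, aggregation induced by 20 uM heparin for 6 hr at 37 C. ThT (30 uM) added for 1 hr, then Alexa 594 FP read.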
# Potency is the fitted concentration of half-maximal effect; tags give direction and shape of the fitted curve.
row,SMILES,Potency
1,S=c1nn[nH]n1C12CC3CC(CC(C3)C1)C2,inactive
2,CC(C)CNC(=O)c1ccccc1NC(=O)c1ccc(CSc2ccccc2)cc1,"inconclusive [inhibitor, partial curve]"
3,Cc1ccc(C(=O)c2cn[nH]c2-c2cc(Cl)ccc2O)cc1,"inconclusive [inhibitor, partial curve]"
4,CC(Oc1ccccc1)C(=O)Nc1ccc(OCc2cc(=O)n3ccsc3n2)cc1 (stereo not given),inactive
5,O=c1oc2ccccc2nc1/C=C(\O)c1ccccc1,inactive
6,c1ccc(CN2CCC(Nc3nc(-c4ccccc4)nc4ccccc34)CC2)cc1,"inconclusive [inhibitor, partial curve, poor fit]"
7,Clc1ccc(CCNc2nc3ccccc3c3nc(-c4ccccc4)nn23)cc1,"inconclusive [inhibitor, single point]"
8,CC1CC(C)(C)NC(=S)N1CC(=O)NCc1ccc(Cl)cc1 (stereo not given),"inconclusive [inhibitor, full curve, poor fit]"
9,O=C(CSc1nnc(-c2ccncc2)n1-c1ccccc1)Nc1ccc(Cl)c(Cl)c1,"inconclusive [inhibitor, partial curve]"
10,CCOc1cc(CNC(=O)c2ccccc2NC(=O)c2nsc3ccccc23)ccc1OC,"inconclusive [inhibitor, full curve, poor fit]"
11,COc1ccc(-c2ccccc2)cc1NCc1ccc(OC)c(OC)c1,inactive
12,COc1ccc2c(CC(=O)Nc3ccc(C)cc3)coc2c1,"inconclusive [inhibitor, partial curve, poor fit]"
13,CCCCN1C2=C(C(=O)CC(C)(C)C2)C(c2ccccc2)C2=C1c1ccccc1C2=O (stereo not given),"inconclusive [inhibitor, single point]"
14,Cc1cc(/C=N/n2cnnc2)c(C)n1-c1ccc(Cl)cc1,"inconclusive [inhibitor, full curve, poor fit]"
15,CCNC(=S)N(Cc1ccccc1)Cc1nc2ccccc2c(=O)[nH]1,inactive
16,Cc1cccc(N2CCN(S(=O)(=O)c3ccc4c(c3)C(C(C)C)C(=O)N4)CC2)c1C (stereo not given),"inconclusive [inhibitor, single point]"
17,Cc1ccc2nc(CSc3nc(C)cc(C)c3C#N)[nH]c2c1,"inconclusive [activator, full curve, poor fit]"
18,COc1cccc(CN2CCCN(CC(=O)Nc3ccc4c(c3)OCCO4)S2(=O)=O)c1,inactive
19,C#CCN1C(=O)C(O)(CC(=O)/C=C/c2ccco2)c2ccccc21 (stereo not given),inactive
20,CCn1c2c(c3cc(OCC(C)C)ccc31)CCCC2=O,"inconclusive [inhibitor, single point]"
21,COc1ccc(N2CCN(C(=O)CSc3c4c(nc5ccc(Cl)cc35)CCCC4)CC2)cc1,inactive
22,CCc1ccc(N2CC(O)=C(c3nc4ccccc4c(=O)[nH]3)C2=N)cc1,"inconclusive [inhibitor, full curve, poor fit]"
23,CCOc1ccc(Br)cc1S(=O)(=O)Nc1ccc(C(=O)Nc2ccccc2OC)cc1,"inconclusive [inhibitor, single point]"

row,SMILES,Potency
1,COc1ccnc(Oc2ccccc2)c1-c1ncn[nH]1,"inconclusive [inhibitor, single point]"
2,N#Cc1nc(Cc2cccc3ccccc23)oc1N1CCOCC1,"inconclusive [inhibitor, single point]"
3,CC(C)CCn1c(N2CCN(c3cccc(Cl)c3)CC2)nc2c1c(=O)[nH]c(=O)n2C,inactive
4,O=C(Nc1cccc(Cl)c1Cl)c1ccc2c(c1)N(Cc1cccc(Cl)c1)C(=O)c1ccccc1S2=O (stereo not given),"inconclusive [inhibitor, single point]"
5,CC(C)c1ccc(S(=O)(=O)Nc2ccc(SC(F)F)cc2)cc1,"inconclusive [inhibitor, partial curve]"
6,COc1ccc2c(c1)c(C(=O)CNc1nc(C)cs1)c(C)n2C,inactive
7,COc1ccc(S(=O)(=O)NCCSc2nnnn2-c2ccccc2)cc1OC,inactive
8,COc1c(-c2ccccc2)oc2c(ccc3occc32)c1=O,"inconclusive [inhibitor, partial curve]"
9,CC(C)CCNC(=O)c1ccc2c(c1)NC(=O)C(C(C)C)N2 (stereo not given),inactive
10,O=S(=O)(c1cnccc1N1CCN(/N=C/c2ccccc2)CC1)N1CCCCC1,"inconclusive [activator, partial curve, poor fit]"
11,CCCCNC(=O)c1c(-c2ccccc2)c(-c2ccccc2)nn(C)c1=O,inactive
12,CCN(CC)c1ccc(/C=C2\CCC(/C=N/NC(=O)c3ccc(=O)n(C)c3)=C2N2CCOCC2)cc1,"inconclusive [activator, partial curve, poor fit]"
13,C=Cn1c(C(=O)O)ccc1-c1ccc(CC)cc1,"inconclusive [activator, partial curve, poor fit]"
14,CC(C)c1ccc(Nc2nnc(SCC(=O)c3nnc(-c4ccccc4)o3)s2)cc1,"inconclusive [inhibitor, single point]"
15,O=C(O)CCNc1ccc2c(c1)OCCO2,"inconclusive [inhibitor, single point]"
16,NC(=NCCCCCCN=C(N)/N=C(\N)Nc1ccc(Cl)cc1)/N=C(\N)Nc1ccc(Cl)cc1,"inconclusive [inhibitor, full curve]"
17,CC(=O)N1c2ccc(S(=O)(=O)NCc3ccccc3Cl)cc2CC1C (stereo not given),inactive
18,CCCCN(C(=O)NC(=O)Nc1nc2ccc(OC)cc2s1)S(C)(=O)=O,inactive
19,COc1ccc(N2CCN(C(=O)C3CCCN(C(=O)c4cc5sccc5n4C)C3)CC2)cc1 (stereo not given),inactive
20,CC1CCCCN1CCCNC(=O)c1cc(Sc2cccc(Cl)c2)nc2ccccc12 (stereo not given),inactive
21,COc1ccc(C(=O)/C=C/c2ccc(OC)c(Cn3nnc4ccccc43)c2)cc1,inactive
22,Cc1c(C#N)c(N=CN(C)C)c(C(=O)c2ccccc2)n1-c1ccc(Br)cc1,inactive
